The results in this text go back to the BET-seq Pho4 binding data (Le et al. 2018).

This is one part of the list. Values were computed here from the reads of four pooled replicates and scatter widely.

This experiment addresses T1, Pho4 (S. cerevisiae) (UniProt P07270).
T1 sequence: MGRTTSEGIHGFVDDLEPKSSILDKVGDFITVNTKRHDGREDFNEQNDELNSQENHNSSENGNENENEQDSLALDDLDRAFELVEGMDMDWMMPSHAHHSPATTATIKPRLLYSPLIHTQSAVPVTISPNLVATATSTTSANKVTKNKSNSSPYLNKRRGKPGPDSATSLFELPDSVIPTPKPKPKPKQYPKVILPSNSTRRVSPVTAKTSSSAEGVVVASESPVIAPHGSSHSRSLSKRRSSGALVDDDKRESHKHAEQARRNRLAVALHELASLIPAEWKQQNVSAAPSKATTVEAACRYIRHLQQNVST
Kind of experiment: relative binding free energy (BET-seq); higher = weaker binding. To be noted: reference: library average.
With TTGTTCACGTGTCCTG, the “relative binding free energy” value came to 0.2 kcal/mol.

ATTATCACGTGGGGAT: the “relative binding free energy” value was found to be 0.06 kcal/mol.

Consider ATGGTCACGTGCTGGG, for which the “relative binding free energy” value was 0.06 kcal/mol.

For GGGGTCACGTGGTACG, the “relative binding free energy” value amounted to 0.12 kcal/mol.

Consider TTTGACACGTGTCGGA, for which the “relative binding free energy” value worked out at 0.05 kcal/mol.

As for GGGAGCACGTGGGGTC, the “relative binding free energy” value is -0.21 kcal/mol.

Take GGTGACACGTGTACGG: the “relative binding free energy” value worked out at 0.03 kcal/mol.

TTCGCCACGTGTTAGT: the “relative binding free energy” value was -0.02 kcal/mol.

As for GATCGCACGTGAGTTG, the “relative binding free energy” value worked out at 0.31 kcal/mol.

Regarding GTTTTCACGTGGAGAA, the “relative binding free energy” value amounted to 0.45 kcal/mol.

As to TGAATCACGTGTGTGT, the “relative binding free energy” value was 0.21 kcal/mol.

For TGAAACACGTGGGAGG, the “relative binding free energy” value was -0.01 kcal/mol.

With CAGTGCACGTGTGGGA, the “relative binding free energy” value is -0.06 kcal/mol.

As to TAGTGCACGTGGGATC, the “relative binding free energy” value is -0.19 kcal/mol.

TGTGCCACGTGGTAGG: the “relative binding free energy” value was -0.04 kcal/mol.

For the sequence GGCCGCACGTGGGGAT, the “relative binding free energy” value is -0.14 kcal/mol.

On to GTTTACACGTGGTAGA, for which the “relative binding free energy” value was 0.15 kcal/mol.

Regarding GATTACACGTGGGGTC, the “relative binding free energy” value was 0.16 kcal/mol.

Turning to TTGGCCACGTGGGTGT, the “relative binding free energy” value is -0.17 kcal/mol.

As for CTGCTCACGTGTGGTG, the “relative binding free energy” value is 0.22 kcal/mol.

As for GGGGACACGTGGGTGG, the “relative binding free energy” value is -0.05 kcal/mol.

Take TCGGGCACGTGGGCTC: the “relative binding free energy” value is -0.14 kcal/mol.

As for CGTTGCACGTGTGTGT, the “relative binding free energy” value is -0.08 kcal/mol.

Take AGTGCCACGTGATTTG: the “relative binding free energy” value was found to be 0.02 kcal/mol.

Consider TGCGACACGTGGTTGG, for which the “relative binding free energy” value is -0.11 kcal/mol.

As to GCGGGCACGTGTAGTA, the “relative binding free energy” value is -0.01 kcal/mol.

Take TGAGTCACGTGGGGCT: the “relative binding free energy” value worked out at 0.07 kcal/mol.

As for AGGTACACGTGTGCGT, the “relative binding free energy” value is -0.01 kcal/mol.

With AGGGTCACGTGGAAGC, the “relative binding free energy” value turned out to be 0.08 kcal/mol.

For the sequence AGGTTCACGTGATAAG, the “relative binding free energy” value amounted to 0.06 kcal/mol.

Turning to GGAGGCACGTGACGCT, the “relative binding free energy” value is 0.1 kcal/mol.

As to ATGTGCACGTGTGGCT, the “relative binding free energy” value is -0.09 kcal/mol.

On to TTCGGCACGTGTGTAG, for which the “relative binding free energy” value is -0.15 kcal/mol.

Turning to AAGGGCACGTGAGGGT, the “relative binding free energy” value was 0.14 kcal/mol.

As to ATCTTCACGTGTAGGT, the “relative binding free energy” value is 0.19 kcal/mol.

Turning to AGGGCCACGTGTGATG, the “relative binding free energy” value is -0.12 kcal/mol.

In the case of GATTTCACGTGTTCAG, the “relative binding free energy” value came to 0.36 kcal/mol.

For TTTGGCACGTGGAGCC, the “relative binding free energy” value was 0.02 kcal/mol.

In the case of CGTATCACGTGTGTGT, the “relative binding free energy” value was found to be 0.09 kcal/mol.

On to CGGGTCACGTGTGGAG, for which the “relative binding free energy” value turned out to be 0.15 kcal/mol.

Regarding GTAGGCACGTGAGTGG, the “relative binding free energy” value is 0.17 kcal/mol.

Take GAAGACACGTGCGGTG: the “relative binding free energy” value was -0.02 kcal/mol.

For the sequence GATCACACGTGGAGTG, the “relative binding free energy” value was 0.15 kcal/mol.

Take TTTGTCACGTGGCATA: the “relative binding free energy” value is -0.01 kcal/mol.

For CATGTCACGTGGGGGT, the “relative binding free energy” value came to 0.05 kcal/mol.

As for CGCGTCACGTGTGGGG, the “relative binding free energy” value was found to be 0.11 kcal/mol.

Regarding TTAGGCACGTGGAGAT, the “relative binding free energy” value is -0.1 kcal/mol.

Consider TGTATCACGTGCCTGG, for which the “relative binding free energy” value was -0.04 kcal/mol.

On to TTGGGCACGTGATAGA, for which the “relative binding free energy” value is -0.06 kcal/mol.

In the case of CATGACACGTGGTAAG, the “relative binding free energy” value was determined as 0.22 kcal/mol.

On to TCTTTCACGTGAGGTA, for which the “relative binding free energy” value came out at 0.33 kcal/mol.

Consider GTTTACACGTGACTGT, for which the “relative binding free energy” value came out at 0.11 kcal/mol.

With TATGACACGTGGTGTC, the “relative binding free energy” value is -0.02 kcal/mol.

Turning to AGGGTCACGTGTTTCA, the “relative binding free energy” value is 0.12 kcal/mol.

Consider TAGTGCACGTGTTCAG, for which the “relative binding free energy” value is -0.05 kcal/mol.

On to GGGTACACGTGATCTG, for which the “relative binding free energy” value came to 0.35 kcal/mol.

TGTATCACGTGCCTTT: the “relative binding free energy” value was found to be 0.16 kcal/mol.

As to GGTTACACGTGTAATA, the “relative binding free energy” value is 0.31 kcal/mol.

Consider ATGTTCACGTGAAGCT, for which the “relative binding free energy” value was found to be 0.42 kcal/mol.

Turning to GTGGCCACGTGAGGTT, the “relative binding free energy” value was found to be 0.37 kcal/mol.

For the sequence AGTAGCACGTGGTTGA, the “relative binding free energy” value came to 0.01 kcal/mol.

For the sequence AGGGTCACGTGCGGGC, the “relative binding free energy” value was 0.08 kcal/mol.

GGAGGCACGTGTTTAT: the “relative binding free energy” value was found to be 0.03 kcal/mol.

For the sequence TTCTCCACGTGTTTTG, the “relative binding free energy” value was 0.17 kcal/mol.

For the sequence TGATTCACGTGGTGTG, the “relative binding free energy” value was 0.24 kcal/mol.

Take TTAGTCACGTGCATAT: the “relative binding free energy” value was determined as 0 kcal/mol.

With GGCGGCACGTGCTGAG, the “relative binding free energy” value was 0.02 kcal/mol.

As for CGTTCCACGTGGTGGT, the “relative binding free energy” value was 0.11 kcal/mol.

In the case of GAATGCACGTGGGTGG, the “relative binding free energy” value was -0.08 kcal/mol.

With GTGTTCACGTGAGGGT, the “relative binding free energy” value came out at 0.52 kcal/mol.

Regarding TTGAGCACGTGGGGCG, the “relative binding free energy” value was -0.26 kcal/mol.

Consider GAGAGCACGTGGTTGA, for which the “relative binding free energy” value was -0.22 kcal/mol.

As to TGTGCCACGTGCGTGC, the “relative binding free energy” value is -0.07 kcal/mol.

With GGTAACACGTGAGGCT, the “relative binding free energy” value stood at 0.25 kcal/mol.

Turning to GGTCACACGTGTTCTT, the “relative binding free energy” value came out at 0.2 kcal/mol.

With GTTCTCACGTGCTGTG, the “relative binding free energy” value turned out to be 0.14 kcal/mol.

For TTAGTCACGTGTAAGG, the “relative binding free energy” value turned out to be 0.13 kcal/mol.

TAAATCACGTGTTCTT: the “relative binding free energy” value turned out to be 0.13 kcal/mol.

As for AGTATCACGTGGACTT, the “relative binding free energy” value is 0.29 kcal/mol.

On to CGGGACACGTGATTAG, for which the “relative binding free energy” value was 0.12 kcal/mol.

For ATCGTCACGTGGGGTA, the “relative binding free energy” value was -0.11 kcal/mol.

In the case of TTGGCCACGTGTTTAG, the “relative binding free energy” value is -0.11 kcal/mol.

For AGTTTCACGTGGCCAT, the “relative binding free energy” value is 0.21 kcal/mol.

As for GCTTACACGTGGGTCG, the “relative binding free energy” value is 0.08 kcal/mol.

As for TGCAGCACGTGGGATA, the “relative binding free energy” value was -0.12 kcal/mol.

As to GTAAGCACGTGGAGTC, the “relative binding free energy” value worked out at 0.16 kcal/mol.

On to CGTGGCACGTGGGATC, for which the “relative binding free energy” value is -0.16 kcal/mol.

As to TGTTACACGTGCGCGT, the “relative binding free energy” value is -0.14 kcal/mol.

On to GTAAACACGTGGGCTA, for which the “relative binding free energy” value was found to be 0.04 kcal/mol.

For GCGGGCACGTGCGGTT, the “relative binding free energy” value is -0.07 kcal/mol.

With AGGGGCACGTGGTGCC, the “relative binding free energy” value was -0.1 kcal/mol.

Consider TTTGTCACGTGTTGGG, for which the “relative binding free energy” value was found to be 0.15 kcal/mol.

For the sequence GGCGTCACGTGCGTGG, the “relative binding free energy” value was 0.05 kcal/mol.

For TATGACACGTGAGAGT, the “relative binding free energy” value came out at 0.23 kcal/mol.

Turning to GGTTTCACGTGTATTC, the “relative binding free energy” value was determined as 0.29 kcal/mol.

As for GTGAGCACGTGTAGCT, the “relative binding free energy” value is -0.12 kcal/mol.

Consider TTTGACACGTGTACTG, for which the “relative binding free energy” value is -0.1 kcal/mol.

For TGTCTCACGTGGCGGT, the “relative binding free energy” value was 0.24 kcal/mol.

Take ATAGACACGTGTGCGG: the “relative binding free energy” value is -0.01 kcal/mol.

Consider CGGTTCACGTGGAGGA, for which the “relative binding free energy” value was determined as 0.27 kcal/mol.

Turning to CTTTGCACGTGAGGTT, the “relative binding free energy” value turned out to be 0.24 kcal/mol.

TGTATCACGTGGTCGG: the “relative binding free energy” value was -0.03 kcal/mol.

Consider TTTTACACGTGTTTGG, for which the “relative binding free energy” value worked out at 0.2 kcal/mol.

GGCGACACGTGGTTAG: the “relative binding free energy” value was 0.13 kcal/mol.

In the case of GGGAGCACGTGTGACG, the “relative binding free energy” value was -0.12 kcal/mol.

Regarding ATTCGCACGTGGGATT, the “relative binding free energy” value is -0.08 kcal/mol.

CTAGGCACGTGTCTTG: the “relative binding free energy” value was -0.05 kcal/mol.

In the case of GAATGCACGTGTAGTG, the “relative binding free energy” value came to 0.01 kcal/mol.

Take GTATTCACGTGGTTAA: the “relative binding free energy” value was found to be 0.17 kcal/mol.

Take GGGGACACGTGAGGTT: the “relative binding free energy” value amounted to 0.22 kcal/mol.

With TCTGGCACGTGTGGTA, the “relative binding free energy” value was -0.05 kcal/mol.

For TGTAGCACGTGTAACT, the “relative binding free energy” value is 0.05 kcal/mol.

With AGGAGCACGTGATTAT, the “relative binding free energy” value was 0.07 kcal/mol.

CTGTACACGTGGTGCG: the “relative binding free energy” value was 0.03 kcal/mol.

As for TGAGTCACGTGGGCAG, the “relative binding free energy” value was -0.06 kcal/mol.
